# According to publication PMC4336329 (PLoS ONE, 2015):
# The campaign covered roughly 310,000 compounds. About 2,200 (0.71%) showed an effect of 50% or more. The effect is printed as a negative number. Some of the results follow.
# Target: human ether-à-go-go-related gene (hERG) potassium channel (human, UniProt Q12809)
# Experiment: primary screen, population patch clamp on CHO cells stably expressing hERG
# Sequence of human ether-à-go-go-related gene (hERG) potassium channel (Q12809 whole entry, looked up): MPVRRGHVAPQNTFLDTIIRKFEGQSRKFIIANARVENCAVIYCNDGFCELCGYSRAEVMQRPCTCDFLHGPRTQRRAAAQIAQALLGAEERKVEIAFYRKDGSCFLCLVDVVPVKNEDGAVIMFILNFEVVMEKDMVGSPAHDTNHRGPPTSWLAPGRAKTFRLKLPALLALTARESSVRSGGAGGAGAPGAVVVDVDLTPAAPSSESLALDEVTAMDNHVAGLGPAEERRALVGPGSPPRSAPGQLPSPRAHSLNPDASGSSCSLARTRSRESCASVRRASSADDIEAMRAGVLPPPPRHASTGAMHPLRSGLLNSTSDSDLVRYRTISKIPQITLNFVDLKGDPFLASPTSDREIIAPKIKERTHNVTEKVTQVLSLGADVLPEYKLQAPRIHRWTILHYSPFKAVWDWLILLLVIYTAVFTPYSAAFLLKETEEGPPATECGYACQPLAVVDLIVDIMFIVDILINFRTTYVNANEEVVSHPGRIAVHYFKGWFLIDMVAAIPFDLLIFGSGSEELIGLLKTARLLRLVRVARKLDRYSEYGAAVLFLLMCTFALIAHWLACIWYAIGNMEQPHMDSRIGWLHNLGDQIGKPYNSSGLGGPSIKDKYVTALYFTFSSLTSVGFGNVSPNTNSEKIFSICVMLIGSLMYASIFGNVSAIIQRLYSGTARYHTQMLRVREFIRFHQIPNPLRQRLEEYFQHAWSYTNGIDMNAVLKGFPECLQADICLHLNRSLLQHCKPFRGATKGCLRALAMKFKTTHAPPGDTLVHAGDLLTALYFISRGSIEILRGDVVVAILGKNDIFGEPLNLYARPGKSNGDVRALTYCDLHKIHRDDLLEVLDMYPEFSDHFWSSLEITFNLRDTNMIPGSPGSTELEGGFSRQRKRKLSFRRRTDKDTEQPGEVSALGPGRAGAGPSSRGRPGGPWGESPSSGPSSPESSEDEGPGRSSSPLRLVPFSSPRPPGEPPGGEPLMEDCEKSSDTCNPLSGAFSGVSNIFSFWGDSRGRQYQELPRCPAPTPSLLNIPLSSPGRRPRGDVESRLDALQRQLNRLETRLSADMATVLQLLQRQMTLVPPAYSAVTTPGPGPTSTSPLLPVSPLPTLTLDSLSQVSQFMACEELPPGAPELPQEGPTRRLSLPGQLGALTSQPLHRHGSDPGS
row,Structure (SMILES),"hERG current change (%, negative = inhibition) at 1uM"
1,O=C(CCS(=O)(=O)c1cccs1)Nc1ccc(C(=O)NCc2cccs2)cc1,12.1%
2,CC(=O)OCCN1C(=O)c2cccnc2C1=O,4.85%
3,Cc1ccccc1S(=O)(=O)Nc1nc2ccccc2nc1N1CCOCC1,8.94%
4,COc1ccccc1NC(=S)NC(=O)Cc1ccccc1,16.7%
5,N#CC1=C(N)SC(N)=C(C#N)C1c1cccc(O)c1,11.4%
6,COc1ccc(Cl)cc1NC(=O)CN1CCC(n2nnc3cc(C)ccc32)CC1,5.49%
7,C/C=C/C(=O)OCC(=O)Nc1ccc(SC(F)F)cc1,1.22%
8,O=C(CN1CCOCC1)Nc1scc2c1c(=O)oc1ccccc12,15.2%
9,O=C(O)[C@@H]1CCCN1C(=O)c1ccccc1N1C(=O)[C@@H]2Cc3c([nH]c4ccccc34)C(c3cccc(Cl)c3)N2C1=O (stereo partly drawn),6.63%
10,CCN(CC)c1ccc(C(=O)c2ccccc2C(=O)O)c(O)c1,11.7%
11,CN(C)C(CNC(=O)C1CCCN(C(=O)c2ccc(Cl)cc2)C1)c1ccco1 (stereo not drawn),10.9%
12,Cn1c(=O)c2ncn(CC(=O)Nc3cc(C(F)(F)F)ccc3N3CCOCC3)c2n(C)c1=O,-21.9%
13,O=C(Nc1ccc(Oc2cccnc2)cc1)C1CCN(Cc2ccc(F)cc2)CC1,-6.12%
14,Cn1c(=O)c2c(nc(N3CCOCC3)n2CC(=O)C23CC4CC(CC(C4)C2)C3)n(C)c1=O,-12.3%
15,COCc1ccc(CN2CCc3c([nH]c4ccccc34)C2CC(C)C)o1 (stereo not drawn),4.93%
16,O=C(O)c1cc(-c2ccc(O)cc2)nc2ccccc12,19.1%
17,O=C(c1cccs1)N1CCN(c2ccccc2)CC1,5.61%
18,COc1cc(C(=O)OCc2nc3ccsc3c(=O)[nH]2)c([N+](=O)[O-])cc1OC,2.78%
19,Cc1ccccc1Nc1nn2c(=O)c3ccccc3nc2s1,12%
20,CC(=O)Nc1ccc(N=Nc2ccc(O)cc2)cc1,14.2%
21,CC(=O)c1ccc(NC(=O)C2C3C=CC(O3)C2C(=O)O)cc1 (stereo not drawn),8.15%
22,O=c1cc(CO)occ1OCc1c(F)cccc1Cl,6.14%
23,COc1cc(NC(=O)c2cc(Br)cc(C)c2OC)ccc1NC(=O)C(C)C,10.6%

row,Structure (SMILES),"hERG current change (%, negative = inhibition) at 1uM"
1,CCCC(C)C(=O)Nc1ccc(S(N)(=O)=O)cc1 (stereo not drawn),13%
2,COc1ccccc1-c1nn(-c2ccccc2)cc1C(=O)NC1CC1,8.95%
3,CCCCN1CCCCC1C(=O)Nc1c(C)cc(C)cc1C.Cl (stereo not drawn),-10.5%
4,O=C(CN1CCc2ccccc21)NC(=O)NCc1ccco1,1.15%
5,Cc1ccc(C(=O)Nc2ccccc2Cl)cc1,15.1%
6,Cc1cccc(NC(=S)N2CC3CC(C2)c2cccc(=O)n2C3)c1C (stereo not drawn),24.7%
7,Cc1ccc2nc3c(nc2c1C)C(O)=C3O,10.5%
8,COc1ccc(CC(=O)N2C[C@H]3C[C@@H](C2)c2cccc(=O)n2C3)cc1,4.14%
9,COc1ccc(NC(=O)Cn2nnc(C(=O)NCCc3ccccc3)c2N)cc1,12.4%
10,CCCCN(C(=O)c1cccc(S(=O)(=O)N2CCN(C)CC2)c1)c1c(N)n(CCCC)c(=O)[nH]c1=O,12.4%
11,COc1cc(NCc2ccccc2)c2ncn(C(C)C)c2c1,2.13%
12,Cc1ccc(-c2cc(C(=O)NCCCN3CCOCC3)c3ccccc3n2)cc1C,6.36%
13,Cc1ccc(CSc2ccc(S(=O)(=O)N3CCCC3)cn2)cc1,3.47%
14,Br.CC(C)(C)c1ccc(-c2csc(NNC3=NCCCCC3)n2)cc1,6.27%
15,CCOC(=O)c1nn(-c2cc(C(=O)OC)cc(C(=O)OC)c2)cc1O,4.07%
16,CCC(C)N=CC1=C(O)CC(c2ccccc2)CC1=O (stereo not drawn),1.68%
17,CCCCOC(=O)C1=C(C)NC(=O)NC1c1ccc(N(C)C)cc1 (stereo not drawn),14.9%
18,Cc1cc(C)cc(N/C(N)=N/c2nc(C)cc(C)n2)c1,-11%
19,CC(Oc1ccc(-c2ccccc2)c(F)c1)c1ccn(S(=O)(=O)c2ccc(Br)cc2)n1 (stereo not drawn),7.72%
20,COC(CNC(=O)c1ccc2c3c(onc13)-c1ccccc1C2=O)OC,10.5%
21,Cc1nn(C(=O)Cn2ccc([N+](=O)[O-])n2)c(C)c1Br,-0.108%
22,O=C(CSc1nc2ccccc2c(=O)n1CCCN1CCOCC1)NC12CC3CC(CC(C3)C1)C2,1.06%
23,Cc1ccc(-n2c(-c3ccncc3)n[nH]c2=S)c(C)c1,4.47%

row,Structure (SMILES),"hERG current change (%, negative = inhibition) at 1uM"
1,O=S(=O)(/N=C(/Nc1ccccn1)c1ccc(Cl)cc1)c1ccc(Cl)cc1,4.53%
2,Cc1nc2scc(C)n2c(=O)c1S(=O)(=O)Nc1ccc(N2CCN(C(=O)C(C)C)CC2)cc1,15%
3,CC(C)c1ccc(OCc2ccc(C(=O)N3CCN(c4ccccn4)CC3)cc2)cc1,-7.79%
4,O=C(CN1CCN(c2ccccc2O)CC1)Nc1ccc2c(c1)CCC2,-1.55%
5,COc1cccc(/C(=N/O)C2CC2c2ccc(Cl)cc2)c1 (stereo not drawn),15.7%
6,COc1ccc(N(CC(=O)Nc2ccc(C)cc2C)S(=O)(=O)c2c(C)n[nH]c2C)cc1,13%
7,O=C(CCNc1ccccc1)c1cccc([N+](=O)[O-])c1,-10.9%
8,COc1ccc(-c2c(-c3ccsc3)oc(=O)c3cc(OC)c(OC)cc23)cc1,10.3%
9,N/C(=N\NC(=O)c1cccc(F)c1)c1cc2ccccc2oc1=O,10.5%
10,Cc1oc(-c2cccc(Cl)c2)[n+]([O-])c1C.Cl,10.3%
11,Cc1ccsc1CN(C)C(=O)CCc1nnc(COc2ccccc2)o1,-0.259%
12,O=S(=O)(c1cccc2ccccc12)n1nnc2ccccc21,12.8%
13,Cc1cccc(-c2n[nH]c(=S)n2-c2ccccc2)c1[N+](=O)[O-],11.4%
14,CC(C)O/C(=N\S(=O)(=O)c1ccc(Cl)cc1)c1ccccc1,-4.57%
15,N#Cc1ccc(OC(=O)c2cnccn2)cc1,10.6%
16,O=C(Nc1cc(F)ccc1F)N1CCN(c2ccnc3cc(Cl)ccc23)CC1,-19.9%
17,Cc1ccc(NCc2nnc(SCC(=O)NCc3ccco3)n2CC2CCCO2)cc1Cl (stereo not drawn),-5.15%
18,c1ccc(CN(Cc2ccccc2)c2ncnc3c2nnn3Cc2ccccc2)cc1,13%
19,COc1cccc(CN=C2Nc3ccccc3CS2)c1,15.4%
20,O=C(NCCc1ccc(Cl)cc1)C1CCC(=O)N1Cc1ccccc1Cl (stereo not drawn),-0.692%
21,CCN(CC)CCCCN1c2ccccc2Sc2ccccc21.Cl,3.62%
22,CCN(C1CCS(=O)(=O)C1)S(=O)(=O)c1ccc2ccccc2c1 (stereo not drawn),5.58%
23,CN1C(C(=O)NCc2ccco2)CC2Cn3c(nc4cc(Cl)c(Cl)cc43)C21 (stereo not drawn),-1.47%

row,Structure (SMILES),"hERG current change (%, negative = inhibition) at 1uM"
1,COc1cccc(NC(=O)CN(C)C(=O)CNC(=O)c2ccccc2F)c1,10.5%
2,COc1cccc(C(=O)N2CCN(C(=O)c3cccc4ccccc34)CC2)c1OC,12.5%
3,COC(=O)c1ccc(N2OC3(C)C=CC2CC3)cc1 (stereo not drawn),11%
4,Cc1cc(C)n(C(=O)c2ccc(C)c(Br)c2)n1,12.4%
5,Cc1cc(Cl)ccc1OC(C)C(=O)NC(C)C1CCCO1 (stereo not drawn),6.71%
6,CCC(CO)Oc1cc(NC(=O)c2ccc(C)cc2)c2ncn(C(C)C)c2c1 (stereo not drawn),8.6%
7,CC(C)CCCN1C(N(C)C)=NC[C@@H]1Cc1ccccc1,-2.29%
8,CC(C)=C1SC(N2CCOCC2)=NC1=O,12.9%
9,O=S(=O)(c1ccc(F)cc1)N1CCC(O)(c2ccc3c(c2)OCO3)CC1,0.314%
10,Nc1nc(N2CCN(c3ccccc3)CC2)n[nH]1,6.41%
11,Fc1ccc(CNCCc2ccc3c(c2)OCO3)cc1,13.8%
12,O=C(C[n+]1ccc(C(=O)NCc2ccccc2)cc1)c1ccc(OC(F)F)cc1.[Br-],-81.2%
13,Cc1ccc(C(=O)Nc2cccc(NC(=O)c3ccc(C)cc3)n2)cc1,6.48%
14,CCCCCn1c(=O)[nH]c2cc(C(=O)NCCCN3CCCCC3CC)ccc2c1=O (stereo not drawn),-7.23%
15,COCCN1C(=O)N[C@@H](c2ccccc2)C(C(C)=O)=C1C,18.1%
16,COc1ccc(NC(=O)C2CCCN(S(=O)(=O)c3cccnc3)C2)cc1OC (stereo not drawn),14.7%
17,O=C(NN1CCOCC1)c1ccc(Br)cc1,10.5%
18,Cc1ccc(OCCC(=O)OCC(=O)Nc2ccc(N3CCOCC3)cc2)cc1,9.86%
19,O=C(c1ccc(S(=O)(=O)N2CCCCCC2)cc1)N1CCN(Cc2ccccc2)CC1,5.56%
20,Cc1ccccc1Nc1c(-c2cccnc2)nc2ccccn12,-0.963%
21,CSc1nc2ccc(NS(=O)(=O)c3ccc(Cl)s3)cc2s1,11.5%
